# From PubChem BioAssay (Tox21)
# Inconclusive results, whose numbers are uncertain, are shown with a selection of clear calls. Potencies of inconclusive entries are left out as doubtful fits. Active and inactive are the calls of the source. Unless noted, calls come from the whole dose curve.
# Experiment: qHTS assay to identify small molecule agonists of the progesterone receptor (PR) signaling pathway - cell viability counter screen (AID 1346799); note: nearly all actives have a fitted effect of over 45% in size
# Conditions: PR-UAS-bla HEK293T viability, CellTiter-Glo luminescence, 16 h; series mostly up to 92.4 µM; activity change, negative = cytotoxicity: at the top concentration
# Outline: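 In parallel with the beta-lactamase readout, cytotoxicity toward PR-UAS-bla HEK293T cells was measured by CellTiter-Glo luminescence following 16 hr compound incubation in 2% charcoal-stripped FBS medium.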
# % is set by controls: 0 for no effect and ±100 for the full control effect; potency is the fitted concentration of half-maximal effect; tags give direction and shape of the fitted curve or compound fluorescence and quenching.
SMILES,"activity change, negative = cytotoxicity",Potency
CCOC(=O)C(O)c1ccccc1 (configuration not stated),inactive: 2.86% [at 42.5 µM],–
O=C(CO)[C@@H](O)[C@H](O)[C@H](O)CO,inactive: 4.48%,–
CC[C@H](NC(C)C)[C@H](O)c1ccc(O)c2[nH]c(=O)ccc12,–,"inconclusive [cytotoxic, full curve, poor fit]"
CC1(C)S[C@@H]2[C@H](NC(=O)C(C(=O)O)c3ccccc3)C(=O)N2[C@H]1C(=O)O (some centres not stated),inactive: 3.15% [at 42.5 µM],–
CCN1CCCC1CN (configuration not stated),–,"inconclusive [cytotoxic, partial curve, poor fit]"
O=c1[nH]c(=O)c2cn[nH]c2[nH]1,inactive: 26.9%,–
Cc1cccc(C)c1NC(=O)CN1CCCCCC1,inactive: -23.1% [at 42.5 µM],–
Cc1ccc(-c2ccccc2C#N)cc1,–,"inconclusive [rising, single point]"
CC(C)C1OCCN1CCOC(=O)NCCCCCCNC(=O)OCCN1CCOC1C(C)C (configuration not stated),inactive: -0.383%,–
CC(=O)Nc1ccc(C)c(Cl)c1,inactive: 0.127%,–
Cc1ccc(S(=O)(=O)NC(=O)NC2CCCC2)cc1,–,"inconclusive [rising, partial curve]"
CCCCCCCCCCCCCCCCN,–,"inconclusive [cytotoxic, partial curve, poor fit]"
N=C(N)c1ccc(OCCCOc2ccc(C(=N)N)cc2)cc1,inactive: 0.0253% [at 42.5 µM],–
Cc1cccc(C)c1NC(=O)CN(CC(=O)O)CC(=O)O,–,"inconclusive [rising, partial curve]"
CCCCCC(N)=O,–,inactive
O=C1CCC(C2CCCCC2)CC1,–,"inconclusive [cytotoxic, single point]"
CCc1c(C(=O)O)c(=O)cnn1-c1ccc(Cl)cc1,inactive: -2.36%,–
CCOC(=O)COC(=O)c1ccccc1C(=O)OCC,inactive: -1.6%,–
Nc1ccc(F)c([N+](=O)[O-])c1,–,"inconclusive [cytotoxic, single point]"
CO[Si](CCCn1c(=O)n(CCC[Si](OC)(OC)OC)c(=O)n(CCC[Si](OC)(OC)OC)c1=O)(OC)OC,inactive: -2.49% [at 42.5 µM],–

# Experiment: qHTS assay to identify small molecule antagonists of the TGF-beta/Smad signaling pathway - cell viability counter screen (AID 1346824; active = well fitted curve in the direction sought with a large enough effect in the repeat runs; inconclusive = weak or mixed curves; inactive = no such curve, though single readings can be large; an effect the other way counts as inactive or inconclusive; note: nearly all actives have a fitted effect of over 50% in size)
# Conditions: SBE-bla HEK293T viability, CellTiter-Glo luminescence; series mostly up to 76.8 µM; viability change, negative = cytotoxic: at the top concentration
# Outline: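 SBE-bla HEK 293T cells, incubated overnight, then compound plus 0.25 ng/mL TGF-beta1 (stock added) for 5 hr at 37 C. Viability was read in the same wells by CellTiter-Glo luminescence after 30 min at room temperature.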
SMILES,"viability change, negative = cytotoxic",Potency
CCCC(C)CO (configuration not stated),inactive: 15.1%,–
Cc1ccc(C=O)cc1,–,"inconclusive [rising, partial curve, poor fit]"
CC[N+](CC)(CC(=O)Nc1c(C)cccc1C)Cc1ccccc1 (tested in a mixture with another compound),inactive: 2.69% [at 35.3 µM],–
CCn1c2ccccc2c2ccccc21,inactive: 0.859%,–
O=S(=O)(O)c1cc(S(=O)(=O)O)c2ccc3c(S(=O)(=O)O)cc(S(=O)(=O)O)c4ccc1c2c43,–,"inconclusive [rising, single point]"
c1ccc2cnncc2c1,inactive: 4.29%,–
CCCCCC(N)=O,–,"inconclusive [rising, single point]"
CC/C=C(\C)C=O,–,"inconclusive [cytotoxic, single point]"

# Experiment: qHTS assay to identify small molecule agonists of the TGF-beta/Smad signaling pathway - cell viability counter screen (AID 1346829; active = well fitted curve in the direction sought with a large enough effect in the repeat runs; inconclusive = weak or mixed curves; inactive = no such curve, though single readings can be large; an effect the other way counts as inactive or inconclusive; note: nearly all actives have a fitted effect of over 45% in size; for activity change, negative = cytotoxicity: top concentration of the series differs between compounds)
# Conditions: SBE-bla HEK293T viability, CellTiter-Glo luminescence, 5 h; series mostly up to 76.8 µM; activity change, negative = cytotoxicity: at the top concentration
# Outline: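 After overnight seating at 37 C and 5% CO2, reporter cells got compounds for 5 hr and FRET substrate for 2 hr; cell viability then came from CellTiter-Glo luminescence.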
SMILES,"activity change, negative = cytotoxicity",Potency
NCCS,inactive: 2.59% [at 35.3 µM],–
CCN(Cc1cccc(S(=O)(=O)O)c1)c1ccc(C(=C2C=CC(=[N+](CC)Cc3cccc(S(=O)(=O)[O-])c3)C=C2)c2ccccc2)cc1,inactive: 12.8% [at 35.3 µM],–
CC(C)C1OCCN1CCOC(=O)NCCCCCCNC(=O)OCCN1CCOC1C(C)C (configuration not stated),–,"inconclusive [cytotoxic, partial curve, poor fit]"
CC(=O)Nc1ccc(C)c(Cl)c1,inactive: -0.796%,–
Cc1[nH]c(C)c(Cl)c(=O)c1Cl,inactive: 5.04% [at 15.8 µM],–
CO/N=C(\C(=O)O)c1csc(NC(=O)CCl)n1,inactive: -2.44% [at 35.3 µM],–
C=CCOCC(O)CO (configuration not stated),inactive: -6.91%,–
Cc1ncc([N+](=O)[O-])n1CC(C)O (configuration not stated),inactive: 5.33% [at 35.3 µM],–
CCc1c(C(=O)O)c(=O)cnn1-c1ccc(Cl)cc1,inactive: -4.61%,–
Nc1ccc(F)c([N+](=O)[O-])c1,inactive: 5.06%,–

# Experiment: qHTS assay to identify small molecule agonists of the TGF-beta/Smad signaling pathway (AID 1346859; active = well fitted activation curve with a large enough effect in the signal ratio in the repeat runs, not every such curve was filed as active; inconclusive = weak or mixed curves; the % refers to the signal ratio)
# Conditions: SBE-bla HEK293T, TGF-beta/Smad beta-lactamase reporter, 5 h; activation: at 76.8 µM (top of the series)
# Outline: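 After overnight seeding, SBE-bla HEK 293T cells are dosed with compounds in DMSO and kept 5 hr at 37 C, 5% CO2. LiveBLAzer-type FRET substrate is then applied for 2 hr at room temperature.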
SMILES,Potency,activation
C[N+](C)(CCOc1ccccc1)Cc1cccs1,"inconclusive [rising, single point]",–
CCOC(=O)C(O)c1ccccc1 (configuration not stated),–,inactive: 5.71% [at 35.3 µM]
COc1ccc(C(=O)N2CCN(CC(=O)N3CCOCC3)CC2)cc1,–,inactive: 0.794% [at 35.3 µM]
C[N+](C)(C)CC(O)CC(=O)[O-] (configuration not stated),–,inactive: 1.19% [at 35.3 µM]
CC(=O)N[C@H]1[C@H]([C@H](O)[C@H](O)CO)OC(C(=O)O)=C[C@@H]1N=C(N)N,–,inactive: 0.833% [at 35.3 µM]
CC(C)c1cc2c(cc1S(=O)(=O)O)[C@@]1(C)CCC[C@@](C)(C(=O)O)[C@@H]1CC2,–,inactive: -0.42% [at 35.3 µM]
C=CCc1cc(OC)c(O)c(C(=O)NCCO)c1,–,inactive: -0.881% [at 35.3 µM]
CCOC(=O)COC(=O)c1ccccc1C(=O)OCC,"inconclusive [rising, partial curve, poor fit]",–
CCC(=O)c1ccc(O)cc1,–,inactive: 2.41% [at 35.3 µM]
